{"source": "PubChem BioAssay (NCI)", "note": "Values joined by “and” are separate entries in the source; they are usually repeats but may differ in a detail not shown here. Identical values can stand only once.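 Step 1: Grow cells in 96-well plates. Step 2: Expose to compound for 48 hours at 5 concentrations. Step 3: Interpolate endpoints linearly; if unreached, use highest concentration. The concentration for 50% growth inhibition is given as GI50. TGI marks complete inhibition of growth.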"}
{"tested_on": "NCI-H322M lung", "experiment": "DTP human tumour cell line panel, 48 h"}
{"smiles": "CNC(=O)N(CCCC(NC(C)=O)C(=O)NCc1ccccc1)Cc1ccccc1", "note": "(centres undefined)", "TGI": "> 100 µM"}
{"smiles": "CC(C)C1=CC23CCC4C(C)(C(=O)O)CCCC4(C)C2CC1C1C(=O)N(c2ccc(N4C(=O)C5C6CC7C8(C)CCCC(C)(C(=O)O)C8CCC7(C=C6C(C)C)C5C4=O)cc2)C(=O)C13", "note": "(centres undefined)", "TGI": "16.9 µM"}
{"smiles": "O=c1n(Cc2ccccc2)c2ccccc2n1CC1CS1", "note": "(centres undefined)", "TGI": "> 100 µM"}
{"smiles": "CC12CCC3C(CCC4(O)C=CCCC34C=O)C1(O)CC(O)C2c1ccc(=O)oc1", "note": "(centres undefined)", "TGI": "0.109 µM"}
{"smiles": "CC1(C)CCCC2(C)[C@@H]1CC[C@]13C[C@](C)(CC[C@@H]21)[C@@H]3CO", "note": "(some centres undefined)", "TGI": "> 100 µM"}
{"smiles": "OCC(O)COc1ccc(F)cc1", "note": "(centres undefined)", "TGI": "> 100 µM"}
{"smiles": "COC(=O)CCC(=O)C(CC(=O)OC)C(=O)CCC(=O)NCCc1ccccc1", "note": "(centres undefined)", "TGI": "> 100 µM"}
{"smiles": "S=C1NC(c2ccccc2)=NC(Cc2ccccc2)(c2ccccc2)N1c1ccccc1", "note": "(centres undefined)", "TGI": "> 100 µM"}
{"smiles": "Fc1cc(C2=Nn3c(nnc3-c3cc(F)c(Cl)cc3Cl)SC2)c(Cl)cc1Cl", "GI50": "29.1 µM", "TGI": "86.9 µM"}
{"smiles": "Oc1c(Nc2ccccc2)cc2c3c1N=NC=3CCN=2", "TGI": "> 100 µM"}
{"smiles": "O=c1cc(CN2CCCCC2)[nH]c2c1ccc1nc(CN3CCCCC3)cc(=O)n12", "TGI": "> 100 µM"}
{"smiles": "CCOC(=O)C(CC(C)C)NC(=O)C(N)Cc1ccc(N(CCCl)CCCl)cc1", "note": "(centres undefined)", "TGI": "50.2 µM"}
{"smiles": "ClCc1nnc2n1-c1ccc(Cl)cc1SC2", "TGI": "23.9 µM"}
{"smiles": "Cc1cc2c(=O)cc(-c3ccc(O)cc3)oc2c(C(=O)O)c1C", "TGI": "> 100 µM"}
{"smiles": "Cc1cc(C)c2c(=O)cc(-c3ccccc3)[nH]c2c1", "TGI": "28.2 µM"}
{"smiles": "c1ccc2c(CNCCCN3CCN(CCCNCc4cccc5ccccc45)CC3)cccc2c1", "TGI": "3.8 µM"}
{"smiles": "CCOC(=O)Cc1csc(Nc2nc(O)c(C3=c4ccccc4=NC3=O)s2)n1", "GI50": "20.2 µM", "TGI": "55.5 µM"}
{"smiles": "O=C(NCCCNc1cc(-c2cn(-c3ccccc3)nc2-c2cccc(O)c2)ccn1)c1ccc(F)cc1", "GI50": "3.27 µM", "TGI": "18.7 µM"}
{"smiles": "Cc1cnc2cc(Cl)ccc2c1NCCN(CC(C)C)CC(C)C", "TGI": "> 100 µM"}
{"smiles": "CCOC(=O)c1sc(Nc2cc(Cl)ccc2Cl)nc1C", "TGI": "> 100 µM"}
{"smiles": "N=C(N)SCCSC(=N)N", "TGI": "> 100 µM"}
{"smiles": "O=C(O)c1ccc(NCn2nc(-c3ccccc3O)oc2=S)cc1O", "GI50": "> 100 µM", "TGI": "> 100 µM"}
{"smiles": "COc1c(O)cc2c(c1CC=C(C)C)OC(=O)c1c(cc(O)c(CC=C(C)C)c1O)O2", "GI50": "3.6 µM", "TGI": "7.3 µM"}
{"smiles": "Nc1ncnc2occ(-c3ccc(NC(=O)Nc4cc(C(F)(F)F)ccc4F)cc3)c12", "GI50": "6.5 µM and 2.22 µM", "TGI": "16.8 µM and 9.29 µM"}
{"smiles": "COc1cccc(Nc2ncnn3ccc(CN4CC[C@@H](N)[C@H](O)C4)c23)c1", "GI50": "0.0277 µM and 0.0361 µM", "TGI": "8.48 µM and 5.48 µM"}
{"smiles": "O=[N+]([O-])c1cccc(C=NC23CC4CC(CC(C4)C2)C3)c1", "TGI": "> 100 µM"}
{"smiles": "O=C1C2=C(c3ccccc31)C(c1ccccc1Cl)NC(=S)N2", "note": "(centres undefined)", "TGI": "> 100 µM"}
{"smiles": "COc1ccc(-c2nc(Nc3ccc(F)cc3)nc(Nc3ccc4c(c3)nc(C)n4Cc3ccccc3)n2)cc1", "GI50": "> 100 µM", "TGI": "> 100 µM"}
{"smiles": "NC(=S)N/N=C/c1cn(CCCl)c2ccccc12", "TGI": "> 100 µM"}
{"smiles": "N#Cc1nc(/C=C/c2cccs2)oc1N", "TGI": "> 100 µM"}
{"smiles": "COc1ccc(/C=C/C(=O)c2ccc(B(O)O)cc2)cc1O", "GI50": "26.1 µM", "TGI": "> 82.7 µM"}
{"smiles": "CC(=O)NS(=O)(=O)c1ccc(-n2nc(-c3ccccc3)cc2-c2cc(O)ccc2O)cc1", "GI50": "> 100 µM", "TGI": "> 100 µM"}
{"smiles": "OC1CCC(COC(c2ccccc2)(c2ccccc2)c2ccccc2)O1", "note": "(centres undefined)", "TGI": "31.5 µM"}
{"smiles": "Cc1ccccc1C(C#N)/C(=N/NC(N)=S)C(=O)Nc1c(C)cccc1C", "note": "(centres undefined)", "TGI": "> 100 µM"}
{"smiles": "Clc1ccc(-c2cn3c(nc4ccccc43)c(/C=C/c3cccs3)n2)cc1", "TGI": "> 100 µM"}
{"smiles": "CCOC(=O)C1C(c2ccccc2)C2(C#N)C(=N)OC1(C)C2(C#N)C#N", "note": "(centres undefined)", "TGI": "67.7 µM"}
{"smiles": "Nc1ccc(N=Nc2ccc(-c3ccc(N=Nc4c(S(=O)(=O)O)cc5cc(S(=O)(=O)O)c(N=Nc6ccc([N+](=O)[O-])cc6)c(N)c5c4O)cc3)cc2)c2cc(S(=O)(=O)O)ccc12", "TGI": "> 100 µM"}
{"smiles": "CCC(CO)COC(=O)/C=C/C(=O)OCC(CC)CO", "note": "(centres undefined)", "TGI": "> 100 µM"}
{"smiles": "CNC(=S)N/N=C(\\C)c1cc(OC)c(OC)cc1O", "TGI": "> 100 µM"}
{"smiles": "Cc1cc(N(C)C)ccc1N=Nc1ccc2ncccc2c1", "TGI": "> 100 µM"}
{"smiles": "Cc1ccc(NCCO)cc1", "TGI": "> 100 µM"}
{"smiles": "COc1cc(/C=C(\\C)c2ccc3c(c2)OCO3)cc(OC)c1OC", "TGI": "> 100 µM"}
{"smiles": "O=C(NCCNc1nccc(-c2c(-c3ccc(F)cc3)nc3sccn23)n1)Nc1cccc(C(F)(F)F)c1", "GI50": "12.3 µM", "TGI": "34.1 µM"}
{"smiles": "CSc1nc(SC)c2cnn(-c3ccnc4cc(Cl)ccc34)c2n1", "GI50": "43.1 µM", "TGI": "> 100 µM"}
{"smiles": "O=C(/C=C/c1cccnc1)c1ccccc1", "GI50": "13.7 µM", "TGI": "27.3 µM"}
{"smiles": "NS(=O)(=O)c1ccc(N=Nc2c(O)[nH]c3cccc(CCc4ccncc4)c23)cc1", "GI50": "> 25 µM", "TGI": "> 25 µM"}
{"smiles": "C=CC(Br)(CBr)CCC1OC1(C)C", "note": "(centres undefined)", "TGI": "94.3 µM"}
{"smiles": "[N-]=[N+]=NCC(=O)c1c[nH]c(=O)[nH]c1=O", "TGI": "> 100 µM"}
{"smiles": "O=C(CSc1nc2ccc([N+](=O)[O-])cc2[nH]1)Nc1ccc([N+](=O)[O-])cc1", "GI50": "3.07 µM", "TGI": "13.6 µM"}
{"smiles": "Nc1c2ccccc2nc2nccnc12", "TGI": "> 100 µM"}
{"smiles": "Cn1cnc([N+](=O)[O-])c1Sc1nccn1-c1ccccc1", "TGI": "> 100 µM"}
{"smiles": "COc1ccc(-c2nc(SCC(=O)N/N=C/c3ccc([N+](=O)[O-])cc3)[nH]c2-c2ccc(OC)cc2)cc1", "TGI": "> 76.6 µM"}
{"smiles": "N#Cc1nc(N)c(C#N)[nH]1", "TGI": "> 100 µM"}
{"smiles": "Cc1ccc([I+]c2ccc(C)cc2)cc1", "GI50": "15.5 µM", "TGI": "> 100 µM"}
{"smiles": "COc1ccc(C(=O)O[C@@H]2CCN3CC[C@H](C)[C@H]23)cc1", "TGI": "> 100 µM"}
{"smiles": "CN(NC(=O)c1ccc(Cl)cc1)C1=NCCCCN1", "TGI": "> 100 µM"}
{"smiles": "O=P1(O)c2ccccc2CSCc2ccccc21", "TGI": "> 100 µM"}
{"smiles": "CC1NC(=O)c2c(-c3ccccc3)nn(-c3ccccc3)c2NC1=O", "note": "(centres undefined)", "TGI": "> 100 µM"}
{"smiles": "CC1(C)CCCCC1/C=C/C(CC(O)(C(F)(F)F)C(F)(F)F)=N\\Nc1ccc([N+](=O)[O-])cc1[N+](=O)[O-]", "note": "(centres undefined)", "TGI": "0.735 µM"}
{"smiles": "CC(=O)OCC(OC(C)=O)C(OC(C)=O)C(/C=N\\Nc1nc2ccccc2c(=O)[nH]1)OC(C)=O", "note": "(centres undefined)", "TGI": "> 100 µM"}
{"smiles": "Cc1cc(S(=O)(=O)Nc2n[nH]c(-c3ccc(Cl)cc3)c2C#N)c(S)cc1Cl", "GI50": "> 100 µM", "TGI": "> 100 µM"}
{"smiles": "S=c1sc2sc(=S)sc2s1", "TGI": "> 100 µM"}
{"smiles": "Cc1ccc(C)c(N2C(=O)C(=O)C(c3nc4ccccc4s3)C(=O)C2=O)c1", "TGI": "> 100 µM"}
{"smiles": "CCN(CC)CCC1CCCCN1CC(=O)N1c2ccccc2NC(=O)CC1C", "note": "(centres undefined)", "TGI": "> 100 µM"}
{"smiles": "COc1ccccc1NC(=S)NNC(=O)c1cc(-c2ccccc2)nc2ccccc12", "TGI": "55.4 µM"}
{"smiles": "O=C(CC(O)(C(F)(F)Cl)C(F)(F)Cl)CC(O)(C(F)(F)Cl)C(F)(F)Cl", "TGI": "> 10 µM"}
{"smiles": "CN(CCNc1ccc(C(=N)N)cc1)c1ccc(C(=N)N)cc1", "GI50": "> 100 µM", "TGI": "> 100 µM"}
{"smiles": "O=C1CNC(=O)N1", "TGI": "> 1120 µM"}
{"smiles": "Cc1ccc(NC(=O)C23CC4CC(CC(C4)C2)C3)c(C(=O)NNC(=O)c2ccc(Cl)cc2)c1", "TGI": "77 µM"}
{"smiles": "CC[n+]1c(/C=C/c2ccc(N3CCCC3)cc2)cccc1/C=C/c1ccc(N2CCCC2)cc1", "GI50": "0.537 µM", "TGI": "2.44 µM"}
{"smiles": "CCOC(=O)c1sc2c(c1OC(=O)c1ccc(Cl)cc1Cl)c(=O)n(-c1ccccc1)c(=S)n2-c1ccccc1", "TGI": "> 100 µM"}
{"smiles": "COc1ccc(NS(=O)(=O)c2ccc3ncn(NS(=O)(=O)c4ccc(I)cc4)c(=O)c3c2)cc1", "TGI": "> 100 µM"}
{"smiles": "NCCSC1(O)C(=O)c2ccccc2-c2ccccc21", "note": "(centres undefined)", "TGI": "3.16 µM"}
{"smiles": "CCc1nc2c(n1CC)C(=O)c1ccccc1C2=O", "TGI": "> 100 µM"}
{"smiles": "COCN1C(=O)[C@@H]2CCCN2C(=O)c2ccc(Cl)cc21", "TGI": "> 100 µM"}
